# This is one part of the list.
# Legend:
# Assay in all cases: glycan array binding signal (z-score within array); higher = stronger binding
# Conditions in all cases: glycan notation: IUPAC condensed, linker removed
# [1] = biological target: Fuc(a1-2)[GalNAc(b1-3)]Gal
# Summary of the method: (§1)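 Columns mapping to the same glycan were averaged after glycan names were converted to IUPAC-condensed notation. The data come from 3228 arrays in the Consortium for Functional Glycomics database, limited to those with an available protein sequence. Binding is reported as a within-array Z-score averaged across arrays of one protein sequence and across linkers.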
# [2] = biological target: Fuc(a1-3)GlcNAc
# Summary of the method: as §1
# [3] = biological target: Fuc(a1-3)[Gal(b1-4)]Glc6S
# Summary of the method: as §1
# [4] = biological target: Fuc(a1-3)[Gal(b1-4)]GlcNAc
# Summary of the method: as §1
# [5] = biological target: Fuc(a1-3)[Gal(b1-4)]GlcNAc(b1-2)Man
# Summary of the method: as §1
# [6] = biological target: Fuc(a1-3)[Gal(b1-4)]GlcNAc(b1-2)Man(a1-3)[Fuc(a1-3)[Gal(b1-4)]GlcNAc(b1-2)Man(a1-6)]Man(b1-4)GlcNAc(b1-4)GlcNAc
# Summary of the method: as §1
# [7] = biological target: Fuc(a1-3)[Gal(b1-4)]GlcNAc(b1-2)Man(a1-3)[Fuc(a1-3)[Gal(b1-4)]GlcNAc(b1-2)Man(a1-6)]Man(b1-4)GlcNAc(b1-4)[Fuc(a1-6)]GlcNAc
# Summary of the method: as §1
# [8] = biological target: Fuc(a1-3)[Gal(b1-4)]GlcNAc(b1-3)Gal(b1-3)[Fuc(a1-4)]GlcNAc
# Summary of the method: as §1
# [9] = biological target: Fuc(a1-3)[Gal(b1-4)]GlcNAc(b1-3)Gal(b1-4)[Fuc(a1-3)]GlcNAc
# Summary of the method: as §1
# [10] = biological target: Fuc(a1-3)[Gal(b1-4)]GlcNAc(b1-3)Gal(b1-4)[Fuc(a1-3)]GlcNAc(b1-3)Gal(b1-4)[Fuc(a1-3)]GlcNAc
# Summary of the method: as §1
# [11] = biological target: Fuc(a1-3)[Gal(b1-4)]GlcNAc(b1-3)GalNAc
# Summary of the method: as §1
# [12] = biological target: Fuc(a1-3)[Gal(b1-4)]GlcNAc(b1-6)GalNAc
# Summary of the method: as §1
# [13] = biological target: Fuc(a1-3)[Gal(b1-4)]GlcNAc(b1-6)[Gal(b1-3)GlcNAc(b1-3)]Gal(b1-4)Glc
# Summary of the method: as §1
# [14] = biological target: Fuc(a1-3)[Gal(b1-4)]GlcNAc6S
# Summary of the method: as §1
# [15] = biological target: Fuc(a1-3)[Gal3S(b1-4)]Glc
# Summary of the method: as §1
# [16] = biological target: Fuc(a1-3)[Gal3S(b1-4)]GlcNAc
# Summary of the method: as §1
# [17] = biological target: Fuc(a1-3)[Gal3S(b1-4)]GlcNAc6S
# Summary of the method: as §1
# [18] = biological target: Fuc(a1-3)[GalNAc(b1-4)]GlcNAc
# Summary of the method: as §1
# [19] = biological target: Fuc(a1-3)[GalNAc(b1-4)]GlcNAc6S
# Summary of the method: as §1
# [20] = biological target: Fuc(a1-4)GlcNAc
# Summary of the method: as §1
# [21] = biological target: Fuc(b1-3)GlcNAc
# Summary of the method: as §1
# [22] = biological target: Gal(a1-2)Gal
# Summary of the method: as §1
# [23] = biological target: Gal(a1-3)Gal
# Summary of the method: as §1
# [24] = biological target: Gal(a1-3)Gal(b1-3)GlcNAc
# Summary of the method: as §1
# [25] = biological target: Gal(a1-3)Gal(b1-3)GlcNAc(b1-2)Man
# Summary of the method: as §1
# [26] = biological target: Gal(a1-3)Gal(b1-3)GlcNAc(b1-2)Man(a1-3)[Gal(a1-3)Gal(b1-3)GlcNAc(b1-2)Man(a1-6)]Man(b1-4)GlcNAc(b1-4)GlcNAc
# Summary of the method: as §1
# [27] = biological target: Gal(a1-3)Gal(b1-3)GlcNAc(b1-3)GalNAc
# Summary of the method: as §1
# [28] = biological target: Gal(a1-3)Gal(b1-3)GlcNAc(b1-6)GalNAc
# Summary of the method: as §1
# [29] = biological target: Gal(a1-3)Gal(b1-3)[Fuc(a1-4)]GlcNAc(b1-2)Man(a1-3)[Gal(a1-3)Gal(b1-3)[Fuc(a1-4)]GlcNAc(b1-2)Man(a1-6)]Man(b1-4)GlcNAc(b1-4)GlcNAc
# Summary of the method: as §1
# [30] = biological target: Gal(a1-3)Gal(b1-4)Glc
# Summary of the method: as §1
# [31] = biological target: Gal(a1-3)Gal(b1-4)GlcNAc
# Summary of the method: as §1
# [32] = biological target: Gal(a1-3)Gal(b1-4)GlcNAc(b1-2)Man
# Summary of the method: as §1
# [33] = biological target: Gal(a1-3)Gal(b1-4)GlcNAc(b1-2)Man(a1-3)[Gal(a1-3)Gal(b1-4)GlcNAc(b1-2)Man(a1-6)]Man(b1-4)GlcNAc(b1-4)GlcNAc
# Summary of the method: as §1
# [34] = biological target: Gal(a1-3)Gal(b1-4)GlcNAc(b1-3)GalNAc
# Summary of the method: as §1
# [35] = biological target: Gal(a1-3)Gal(b1-4)GlcNAc(b1-6)GalNAc
# Summary of the method: as §1
# [36] = biological target: Gal(a1-3)Gal(b1-4)[Fuc(a1-3)]GlcNAc
# Summary of the method: as §1
# [37] = biological target: Gal(a1-3)Gal(b1-4)[Fuc(a1-3)]GlcNAc(b1-2)Man(a1-3)[Gal(a1-3)Gal(b1-4)[Fuc(a1-3)]GlcNAc(b1-2)Man(a1-6)]Man(b1-4)GlcNAc(b1-4)GlcNAc
# Summary of the method: as §1
# [38] = biological target: Gal(a1-3)GalNAc
# Summary of the method: as §1
# [39] = biological target: Gal(a1-3)[Gal(a1-4)]Gal(b1-4)GlcNAc
# Summary of the method: as §1
# [40] = biological target: Gal(a1-4)Gal(b1-3)GlcNAc(b1-2)Man(a1-3)[Gal(a1-4)Gal(b1-3)GlcNAc(b1-2)Man(a1-6)]Man(b1-4)GlcNAc(b1-4)GlcNAc
# Summary of the method: as §1
# [41] = biological target: Gal(a1-4)Gal(b1-4)Glc
# Summary of the method: as §1
# [42] = biological target: Gal(a1-4)Gal(b1-4)GlcNAc
# Summary of the method: as §1
# [43] = biological target: Gal(a1-4)Gal(b1-4)GlcNAc(b1-2)Man(a1-3)[Gal(a1-4)Gal(b1-4)GlcNAc(b1-2)Man(a1-6)]Man(b1-4)GlcNAc(b1-4)GlcNAc
# Summary of the method: as §1
# [44] = biological target: Gal(a1-4)Gal(b1-4)GlcNAc(b1-3)Gal(b1-4)Glc
# Summary of the method: as §1
# [45] = biological target: Gal(a1-4)GlcNAc
# Summary of the method: as §1
binder,measurement,setting,value
"EPL1 (Trichoderma atroviride), A0PCX2 (protein) MQLSNLFKLALFTAAVSADTVSYDTGYDDASRSLTVVSCSDGTNGLITRYHWQTQGQIPRFPYIGGAQAVAGWNSPNCGTCWKLTYSGKTIYVLAIDHTAAGFNIGLDAMNALTNGNAVALGRVSATASQVAVSNCGL",glycan array binding signal (z-score),[1],-0.54
same,glycan array binding signal (z-score),[2],-0.052
same,glycan array binding signal (z-score),[3],-0.166
same,glycan array binding signal (z-score),[4],-0.397
same,glycan array binding signal (z-score),[5],0.185
same,glycan array binding signal (z-score),[6],-0.258
same,glycan array binding signal (z-score),[7],0.451
same,glycan array binding signal (z-score),[8],-0.027
same,glycan array binding signal (z-score),[9],-0.051
same,glycan array binding signal (z-score),[10],-0.19
same,glycan array binding signal (z-score),[11],-0.022
same,glycan array binding signal (z-score),[12],-0.122
same,glycan array binding signal (z-score),[13],0.15
same,glycan array binding signal (z-score),[14],0.291
same,glycan array binding signal (z-score),[15],0.585
same,glycan array binding signal (z-score),[16],0.108
same,glycan array binding signal (z-score),[17],0.255
same,glycan array binding signal (z-score),[18],0.203
same,glycan array binding signal (z-score),[19],-0.245
same,glycan array binding signal (z-score),[20],3.1
same,glycan array binding signal (z-score),[21],-0.156
same,glycan array binding signal (z-score),[22],0.255
same,glycan array binding signal (z-score),[23],-0.422
same,glycan array binding signal (z-score),[24],-0.491
same,glycan array binding signal (z-score),[25],-0.149
same,glycan array binding signal (z-score),[26],-0.058
same,glycan array binding signal (z-score),[27],0.164
same,glycan array binding signal (z-score),[28],-0.018
same,glycan array binding signal (z-score),[29],-0.19
same,glycan array binding signal (z-score),[30],-0.454
same,glycan array binding signal (z-score),[31],-0.381
same,glycan array binding signal (z-score),[32],-0.522
same,glycan array binding signal (z-score),[33],0.847
same,glycan array binding signal (z-score),[34],0.101
same,glycan array binding signal (z-score),[35],0.045
same,glycan array binding signal (z-score),[36],-0.262
same,glycan array binding signal (z-score),[37],0.929
same,glycan array binding signal (z-score),[38],-0.034
same,glycan array binding signal (z-score),[39],0.643
same,glycan array binding signal (z-score),[40],-0.259
same,glycan array binding signal (z-score),[41],0.212
same,glycan array binding signal (z-score),[42],0.34
same,glycan array binding signal (z-score),[43],-0.178
same,glycan array binding signal (z-score),[44],-0.378
same,glycan array binding signal (z-score),[45],-0.267

# From the supplement of paper PMC8728848
